# Measured values from the antibiotic and cytotoxicity screens of Wong et al. (2023).
# The list shows a part of the results.
# How the values were obtained:
# HSkMC = human skeletal muscle cells; test: cytotoxicity call (relative viability < 0.9); conditions: 10 µM
# S. aureus RN4220 = test: growth inhibition call (relative growth <= 0.2); conditions: 50 µM
Structure (SMILES),cytotoxicity call (HSkMC),growth inhibition call (S. aureus RN4220)
COc1cccc(-c2ccc3n(c2=O)C[C@H]2[C@H](CO)[C@@H](C(=O)NCC4CC4)[C@@H]3N2S(C)(=O)=O)c1,inactive,inactive
CC(CCC(=O)O)C1CCC2C3C(O)CC4CC(O)CCC4(C)C3CCC12C (configuration not stated),inactive,inactive
CCCNC(=O)N(C)C[C@@H]1Oc2cc(-c3ccc(C)cc3)ccc2S(=O)(=O)N([C@H](C)CO)C[C@@H]1C,inactive,inactive
CC(=O)N[C@@H]1C[C@H](O)[C@@H](O)CCC(=O)N[C@H](c2ccccc2)COC1=O,inactive,inactive
CCS(=O)(=O)N1C[C@]2(CN(C2)C(=O)CN2CCOCC2)c2c(n(c3cc(ccc23)OC)C)[C@H]1CO,inactive,inactive
C[C@H](CO)N1C[C@H](C)[C@@H](CN(C)Cc2ccc(C(F)(F)F)cc2)Oc2ccc(NC(=O)Cc3ccccc3)cc2CC1=O,inactive,inactive
COc1ccc(S(=O)(=O)Nc2ccc3c(c2)CC(=O)N([C@@H](C)CO)C[C@H](C)[C@@H](CN(C)C(=O)Nc2c(C)noc2C)O3)cc1,inactive,inactive
C[C@H]1CC(=O)Nc2c1c(N)nn2C,inactive,inactive
CC(C)NC(=O)N(C)C[C@H]1Oc2c(NS(=O)(=O)c3ccccc3)cccc2C(=O)N([C@H](C)CO)C[C@@H]1C,inactive,inactive
CC(C)CC#Cc1ccc2c(c1)O[C@H](CN(C)Cc1cncnc1)[C@H](C)CN([C@@H](C)CO)S2(=O)=O,inactive,inactive
C[C@H](CO)N1C[C@H](C)[C@H](CN(C)Cc2ccccc2)OCCCC[C@H](C)Oc2ccc(NS(=O)(=O)c3ccc(Cl)cc3)cc2C1=O,inactive,inactive
